In ChEMBL document CHEMBL4888484, “Replenishing the malaria drug discovery pipeline: Screening and hit evaluation of the MMV Hit Generation Library 1 (HGL1) against asexual blood stage Plasmodium falciparum ,using a nano luciferase reporter read-out” (2022):
The whole screen tested about 150,000 compounds, of which about 540 (0.36%) showed an effect of 50% or more. The list shows a part of the results.

test system: Plasmodium falciparum; assay: Primary screen in NF54 nanoGlo assay, in single point, at 2uM, 72h; a lower Z score goes with more inhibition; format: functional, Erythrocyte; details: timepoint 72 hour

| SMILES | % Inhibition [%] | Z score |
| --- | --- | --- |
| CC(C)(C)OC(=O)CC1(NC[C@H](O)C(F)(F)F)CCOCC1 | -5 | 0.6 |
| CCOC(=O)c1cc(NS(=O)(=O)c2cccc3c2N=S=N3)c[nH]1 | -2 | 0.38 |
| Cn1cc(-c2cc(C(=O)N3CCC[C@H](C(F)(F)F)C3)c3ccccc3n2)cn1 | -7 | 1.07 |
| CCOC(=O)c1c(S(=O)(=O)N2CCC[C@H](C(=O)NCc3ccc4c(c3)OCO4)C2)c(C)n(CC)c1C | -23 | 2.13 |
| CC(C)(C)CCNCC1(S(C)(=O)=O)CCOCC1 | -10 | 1.97 |
| Cc1noc(C)c1[C@@H](C)C(=O)Nc1cnccn1 | -9 | 0.81 |
| COc1ccc(CN(c2cc(C)nc3nc(C(F)(F)F)nn23)C2CC2)c(OC)c1 | 1 | -0.22 |
| COc1ccc(S(=O)(=O)c2cnc(N3CCc4ccccc4C3)nc2N)cc1Cl | 2 | -0.34 |
| CCC(NC(=O)c1cc(-c2ccsc2)n[nH]1)[C@H]1C[C@H](O)C1 (some centres not stated) | -5 | 0.81 |
| CC(C)(C)c1ccc(C(=O)C(=O)Nc2cc(N3CCOC3=O)ccc2F)cc1 | -6 | 0.72 |
| Cc1cc(NC(=O)CC[C@@H](C)[C@H]2CC[C@H]3[C@@H]4CC[C@@H]5C[C@H](O)CC[C@]5(C)[C@H]4C[C@H](O)[C@]23C)n(C2CCS(=O)(=O)C2)n1 (some centres not stated) | -15 | 1.68 |
| CC1CN(Cc2csc(CC(=O)Nc3ccccc3)n2)C(C)CO1 (configuration not stated) | -12 | 1.17 |
| O=C(NCc1ccccc1)C1CCN(Cc2cc(C#CCO)cs2)CC1 | -12 | 1.72 |
| O=C(OCc1cncs1)c1ccc(N2CCCC2)nc1 | -12 | 1.95 |
| COc1c(C)cnc(CNCc2c(C(C)C)nn(C)c2OC)c1C | -6 | 0.82 |
| CC1COCC(C)N1c1nn2cc(-c3ccccc3)nc2s1 (configuration not stated) | -14 | 1.95 |
| COc1cc(-c2c3c(=O)[nH]n(C(C)C)c3nc3[nH]c(=O)n(C)c23)ccc1OC(F)F | -8 | 1.49 |
| CC(C)(C)OC(=O)N[C@H]1CCCc2cn[nH]c21 | 4 | -0.5 |
| CC(=O)N1CCC([C@@H]2CN(C(=O)c3ccc4ccccc4n3)C[C@H]2CO)CC1 | 8 | -0.96 |
| CN1CC2(C[C@H]1c1nnc(-c3ccccc3)o1)CN(C(=O)NC1CCCC1)C2 | -2 | 0.25 |
| Cc1cn[nH]c1[C@H]1CCCN(S(=O)(=O)c2ccsc2)C1 | -7 | 0.95 |
